From PubChem BioAssay AID485344 (National Center for Advancing Translational Sciences (NCATS), 2010)
The whole screen tested about 340,000 compounds, of which about 6,900 (2%) were called active. Rule as the data show it: active = inhibition above about 30%; inactive = below that, where a call was filed. Only a part is listed here, and it is no random draw. The source gives no active or inactive call for entries shown without one.

Each molecule was assayed against D(2) dopamine receptor (Homo sapiens) (UniProt P14416) (assay: HTS Assay for Allosteric Antagonists of the Human D2 Dopamine Receptor: Primary Screen for Antagonists). Settings: HEK293 TREx D2 cells, calcium flux, dopamine EC80; at 10 µM; stronger effect = higher value.
UniProt P14416, sequence (P14416 whole entry, looked up): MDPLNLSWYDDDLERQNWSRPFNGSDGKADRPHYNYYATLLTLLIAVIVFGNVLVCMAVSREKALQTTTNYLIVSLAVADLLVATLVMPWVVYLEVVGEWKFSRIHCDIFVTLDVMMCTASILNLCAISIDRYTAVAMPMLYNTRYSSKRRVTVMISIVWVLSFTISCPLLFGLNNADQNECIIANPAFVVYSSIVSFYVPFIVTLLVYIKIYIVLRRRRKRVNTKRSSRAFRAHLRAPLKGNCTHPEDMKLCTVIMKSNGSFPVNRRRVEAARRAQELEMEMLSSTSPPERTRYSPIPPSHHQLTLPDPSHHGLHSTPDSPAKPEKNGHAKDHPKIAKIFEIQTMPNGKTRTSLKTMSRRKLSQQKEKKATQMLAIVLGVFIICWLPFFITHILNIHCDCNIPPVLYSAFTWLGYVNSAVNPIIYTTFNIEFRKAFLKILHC
Outline: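 Overnight-induced (tetracycline, 30 C) HEK293 T-REx cells carrying force-coupled D2 receive a no-wash calcium dye, then compound, then EC80 dopamine at 180 s; signals are read kinetically throughout.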
Also: 0% is about no effect.

Row | SMILES | inhibition
1 | COc1ccccc1N(C)C(=O)Cn1c(=O)oc2cc(S(=O)(=O)N3CCCC3)ccc21 | 7.96%
2 | CCc1c(C)nc2nncn2c1Nc1cccc(C)c1 | -6.44%
3 | COc1ccc(-c2nc(SCC(=O)Nc3cccc(C(C)=O)c3)n[nH]2)cc1 | 20.8%
4 | Fc1ccc(-c2noc3ncnc(N4CCCCC4)c23)cc1 | -3.23%
5 | COc1ccc(Cc2nc3ccc(C(=O)NCc4cc(Br)ccc4OC)cc3o2)cc1 | -2.3%
6 | O=C(Cc1ccccc1)Nc1cc(-c2nc3cc(Cl)ccc3o2)ccc1Cl | -1.54%
7 | N#Cc1ccccc1S(=O)(=O)N1CCC(Oc2ccc(-n3cnnn3)cc2)CC1 | -0.507%
8 | COc1ccc(C2CC(=O)c3cnc4c(-c5ccccc5)c(C)nn4c3C2)c(OC)c1 (centres undefined) | -12.2%
9 | CCCCNC(=O)CCCn1c(=O)c2ccccc2n(Cc2ccc(Cl)cc2)c1=O | 10.8%
10 | COc1ccc2c(c1)c1c(c(=O)n(-c3ccc(OC)c(OC)c3)c(=O)n1Cc1ccc(C)cc1)n2C | 2.39%
11 | COc1ccccc1CNC(=O)CCCn1c(=O)c2cccn2c2ccccc21 | 3.64%
12 | NS(=O)(=O)c1ccc(CNC(=O)CCSCCC(=O)NCc2ccc(S(N)(=O)=O)cc2)cc1 | active: 32.9%
13 | Cc1cc2c(cc1C)-n1c(-c3ccccc3)c3c(=O)n(C)c(=O)n(C)c3c1C(c1ccco1)N2 (centres undefined) | 1.45%
14 | CC(C)(C)OC(=O)N1CCC(c2c(C(=O)N3CCOCC3)cnn2-c2ccccc2Cl)CC1 | -4.88%
15 | CCc1ccc2oc(C(=O)Nc3cc(Cl)ccc3OC)cc(=O)c2c1 | 8.76%
16 | Cc1c(C(=O)Nc2ccccc2)sc2nc(-c3cc4ccccc4oc3=O)[nH]c(=O)c12 | -6.49%
17 | O=C(Nc1ccc2nc(SCC(=O)N3CCCc4ccccc43)sc2c1)c1ccccc1F | 18.8%
18 | Cc1ccc(NC(=O)CCn2nc(-c3ccccc3)c3ccccc3c2=O)c(C)c1 | -0.335%
19 | Fc1ccc(Nc2nc(-c3cccc(Cl)c3)c3c(n2)-c2ccccc2OC3)cc1 | 7.93%
20 | CCc1ccc(C2=C(C)C(N3CCC(C(=O)Nc4ccc(F)cc4)CC3)=NS2(=O)=O)cc1 | -0.854%
21 | O=C(Nc1cccc(C(=O)N2CCN(c3ccccc3)CC2)c1)c1nsc2ccccc12 | -14.2%
22 | Cc1cc2ccccc2n1CCNC(=O)c1ccccc1F | -2.41%
23 | O=c1c2sc3ccccc3c2n(Cc2ccc(F)cc2)c(=O)n1Cc1ccco1 | 5.17%
24 | CC(C)c1ccc(S(=O)(=O)c2nnn3c2nc(NCc2cccs2)c2sccc23)cc1 | 2.19%
25 | O=C(NCC(c1ccc2c(c1)OCO2)N1CCN(c2ccccc2)CC1)C(=O)Nc1ccccc1 (centres undefined) | -25%

Row | SMILES | inhibition
26 | COc1ccc(C(=O)Nc2ccccc2)cc1S(=O)(=O)Nc1ccc(Br)cc1 | 4.86%
27 | O=C(OCc1cc(=O)n2nc(C3CC3)sc2n1)c1ccc(NC(=O)c2ccccc2Cl)cc1 | -3.83%
28 | O=C1CC(N2CCC(C(=O)N3CCCCC3)CC2)C(=O)N1 (centres undefined) | active: 37.9%
29 | CCOc1ccc(C2C(C(N)=O)=C(C)Nc3nc(-c4ccc(OC)cc4)nn32)cc1 (centres undefined) | -5.22%
30 | COc1ccccc1Nc1nn2c(=O)c3ccc(C(=O)NC4CCC(C)CC4)cc3nc2s1 (centres undefined) | 16.8%
31 | COc1ccccc1C(=O)Nc1cccc(OCc2cc(=O)n3c4c(sc3n2)CCCC4)c1 | 13.1%
32 | O=C(C1CCN(S(=O)(=O)c2ccc(Br)s2)CC1)N1CCN(c2ccc(F)cc2)CC1 | 7.78%
33 | CNC(=O)C1CCC(Cn2c(=O)c3sccc3n(CC(=O)N3CCCC3)c2=O)CC1 (centres undefined) | 13.2%
34 | COc1cccc(CNc2ncnc3c2nnn3C)c1 | -6.27%
35 | COc1cccc(C2CC(=O)Nc3c2c(=O)[nH]c2ncnn32)c1OC (centres undefined) | -2.05%
36 | Cc1cccc2cc(CN(C(=O)c3cccc(Cl)c3)c3ccccc3)c(=O)[nH]c12 | -8.67%
37 | CCN(C(=O)CSc1nc(-c2ccccc2)no1)c1cccc(C)c1 | -18.8%
38 | Cc1ccc2c(c1)cc(C(=O)NCc1ccc(F)cc1)n2C | 3.18%
39 | COc1ccccc1N1CCN(c2ccc(=O)n(CC(=O)O)n2)CC1 | 18.8%
40 | COc1ccccc1OCC(=O)NCCS(=O)(=O)N1CCN(c2ccccc2)CC1 | active: 62.1%
41 | O=c1c2sc3ccccc3c2n(Cc2ccccc2F)c(=O)n1-c1ccccc1Cl | -4.35%
42 | COc1cccc(CNC(=O)CSc2nc3ccccc3nc2Cc2ccccc2)c1 | 2.13%
43 | Cc1ccccc1NC(=O)c1c(C)oc2ccc(O)c(CN3CCCC(C)C3)c12 (centres undefined) | 6.18%
44 | COc1cc2c(cc1OC)C(c1ccc(F)cc1)N(c1ccccc1)C(=O)C2 (centres undefined) | -0.848%
45 | CCN(CC)S(=O)(=O)c1ccc2nc(NC(=O)c3ccccc3OC)sc2c1 | 26.5%
46 | Cc1nnc(N2CCC(C(=O)NCc3ccc(F)cc3)CC2)c2nn(-c3ccc(Cl)cc3)c(C)c12 | 1.55%
47 | COc1ccc(CN2CCN(c3ncccn3)CC2)c(C)c1C | active: 93.4%
48 | OCCNCCOc1ccc(Cl)c(Cl)c1 | active: 33.4%
49 | C=CCOc1ccc(Br)cc1CNCC | active: 67.4%
50 | Cc1cc(Br)ccc1NC(=O)COc1cc(=O)n(C)c2ccccc12 | -7.03%

Row | SMILES | inhibition
51 | COc1ccccc1NC(=O)c1ccc2[nH]c(C)cc(=O)c2c1 | 8.53%
52 | CCCCOc1ccc(C(=O)NCCS(=O)(=O)N2CCN(c3ccccc3OC)CC2)cc1 | -19.6%
53 | Cc1ccc2oc(-c3cc(NC(=O)Cc4ccccc4)ccc3Cl)nc2c1 | 11.9%
54 | O=C(COc1ccc(Cl)cc1)Nc1ccc(O)c(-c2nc3ccccc3s2)c1 | 0.806%
55 | O=C(NC1CC(=O)N(c2ccc(F)cc2)C1)c1ccc(S(=O)(=O)N2CCCC2)cc1 (centres undefined) | 7.93%
56 | CCN(C(=O)CSc1nc2ccccc2nc1Cc1cccc(OC)c1)c1cccc(C)c1 | 9.21%
57 | Cc1cc(C)n2nnnc2n1 | active: 38.3%
58 | O=C(Nc1cccnc1)c1ccc(CN2CCc3ccccc3C2)cc1 | active: 65.8%
59 | Cc1ccc(NC(=O)Nc2nc3c(s2)CCCCCC3)cc1C | 7.37%
60 | CC(=O)Nc1c(C)nn(-c2ccccc2)c1N1CCC(C(=O)Nc2ccc(C)cc2Cl)CC1 | 0.932%
61 | CCCc1nc2nc(C)c(NS(=O)(=O)c3ccc(C)c(C)c3)c(=O)n2[nH]1 | -12.1%
62 | C/C(=N\NC(=O)CN1CCCCC1)c1ccccc1O | active: 84.6%
63 | COc1cccc(NC(=O)CSc2nnc3[nH]c(=O)cc(-c4ccccc4)n23)c1 | -17.7%
64 | CCOC(=O)C1CCCN(C(=O)c2ccc(C)c(NC(=O)c3nsc4ccccc34)c2)C1 (centres undefined) | -7.9%
65 | CC(=O)Nc1ccc(NC(=O)c2ccc3c(c2)CCN3S(=O)(=O)c2ccc(Cl)cc2)cc1 | 6.46%
66 | COc1ccc(CCNc2oc(/C=C/c3ccc(OC)c(OC)c3)nc2C#N)cc1 | 14.8%
67 | CC(=O)Nc1ccc(C)cc1-c1nc2ccccc2n(Cc2cccc(Br)c2)c1=O | 24.2%
68 | NS(=O)(=O)c1ccc(NC(=O)/C=C/c2cccc(Cl)c2)cc1 | active: 35.2%
69 | COc1ccc(OC)c(-n2nnc(-c3nc(-c4ccc5c(c4)OCO5)no3)c2C)c1 | 2.64%
70 | Clc1ccc(OCCCN2CCCCC2)c(Br)c1 | active: 38%
71 | O=C(NC1CC(=O)N(c2cccc(F)c2)C1)c1ccc(S(=O)(=O)N2CCCCC2)cc1 (centres undefined) | 11.2%
72 | CCN(CC)c1ccc2cc(-c3nnc(-c4ccccc4)o3)c(=O)oc2c1 | active: 37.9%
73 | Cc1noc(-c2ccc(N(C)Cc3ccccc3)c([N+](=O)[O-])c2)n1 | -4.01%
74 | Cc1ccc(OCC(=O)Nc2nnc(SCc3cc(=O)n4cc(C)ccc4n3)s2)cc1 | -2.08%
75 | COC(=O)c1ccccc1NC(=O)CCn1c(=O)c2cccn2c2cccnc21 | 4.24%

Row | SMILES | inhibition
76 | COc1ccc(C(=O)Nc2cc(-c3nc4ncccc4o3)ccc2C)cc1Br | -7.51%
77 | O=C(c1cccs1)N(Cc1ccco1)C1CCS(=O)(=O)C1 (centres undefined) | active: 40.8%
78 | CCC(=O)N1c2ccccc2CC1C(=O)NCCc1ccccc1OC (centres undefined) | 5.55%
79 | Cc1ccc(C)c(-c2ccc(=O)n(C(C)C(=O)Nc3ccccc3C(F)(F)F)n2)c1 (centres undefined) | -9.32%
80 | CCCCNC(=O)CSc1nc(-c2ccc(OC)cc2)cc(C(F)(F)F)n1 | -1.72%
81 | CCc1ccc(-n2nc(C)c3c(C(=O)Nc4ccc(Cl)cc4)cc(C)nc32)cc1 | 6.97%
82 | Cc1ccc(CN(C(=O)COc2cccc(Cl)c2)c2ccccn2)o1 | 0.944%
83 | CCOc1ccc(NC(c2ccc(Cl)cc2)c2nnc(-c3cccc(F)c3)o2)cc1 (centres undefined) | -5.88%
84 | COc1cc(O)ccc1-c1nc2ccc(Br)cn2c1Nc1ccccc1C | 11.4%
85 | O=C(Nc1ccccc1F)C(c1ccccc1)N1Cc2ccccc2C1=O (centres undefined) | 4.03%
86 | CCOc1ccccc1NC(=O)CSc1ccc([N+](=O)[O-])cc1 | active: 40.9%
87 | O=C(CSc1nccn1Cc1ccc(F)cc1)NC1CCCC1 | 5.48%
88 | COc1ccc(NC(=O)C2(S(=O)(=O)c3ccc(C)cc3)CC2)c(OC)c1 | -1.75%
89 | CCCN(CCC)C(=O)Cn1c(=O)n(-c2ccc(CC)cc2)c(=O)c2c3c(sc21)CCC3 | 13.5%
90 | CCOC(=O)C1CCN(C(=O)c2ccc3c(=O)n4nc(Nc5ccccc5)sc4nc3c2)CC1 | -17.9%
91 | Cc1ccn2c(Nc3ccc4c(c3)OCO4)c(-c3ccc(C)o3)nc2c1 | -16.2%
92 | Cc1ccc(C(=O)NCCSc2c[nH]c3ccccc23)cc1C | -17.6%
93 | Cc1cccc(NC(=O)c2ccc(F)c(S(=O)(=O)NCc3ccc4c(c3)OCO4)c2)c1 | 13.5%
94 | CCOc1ccc(N(CC)C(=O)c2cc3c(s2)-c2ccc(Cl)cc2SC3)cc1 | -10.9%
95 | OCCN1CCN(C(=S)c2ccc(Br)cc2)CC1 | active: 54.7%
96 | Cc1cc(C)cc(NC(=O)CSc2oc(-c3cccs3)nc2S(=O)(=O)c2ccc(Br)cc2)c1 | 3.04%
97 | COC(=O)c1sc2cccc(F)c2c1S(=O)(=O)NC(C)c1ccccc1 (centres undefined) | 8.5%
98 | CCc1ccc(NCc2cc3ccc(OC)cc3n(CC(=O)Nc3ccccc3OC)c2=O)cc1 | 8.66%
99 | Cc1cccn2c(=O)c3cc(C(=O)NC(C)(C)C)n(C)c3nc12 | -5.32%
